# Laboratory results reported in the supplement of paper PMC8728848.
# Some of the results follow.
# Tests used:
# Assay in all cases: glycan array binding signal (z-score within array); higher = stronger binding
# Conditions in all cases: glycan notation: IUPAC condensed, linker removed
# Glc(b1-4)Glc = biological target: Glc(b1-4)Glc
# Method in brief: (§1)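 The binding signal is a Z-score computed within each array and averaged over linkers. Arrays of the same protein sequence at different concentrations or buffers were also averaged together. Data originate from 3228 arrays in the Consortium for Functional Glycomics database, kept only where the protein sequence was available.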
# Glc(b1-6)Glc = biological target: Glc(b1-6)Glc
# Method in brief: as §1
# GlcA(b1-3)Gal = biological target: GlcA(b1-3)Gal
# Method in brief: as §1
# GlcA(b1-3)GlcNAc = biological target: GlcA(b1-3)GlcNAc
# Method in brief: as §1
# GlcA(b1-6)Gal = biological target: GlcA(b1-6)Gal
# Method in brief: as §1
# [1] = biological target: GlcA3S(b1-3)Gal(b1-4)GlcNAc(b1-2)Man
# Method in brief: as §1
# [2] = biological target: GlcA3S(b1-3)Gal(b1-4)GlcNAc(b1-3)Gal(b1-4)Glc
# Method in brief: as §1
# [3] = biological target: GlcNAc(a1-3)Gal(b1-4)GlcNAc
# Method in brief: as §1
# [4] = biological target: GlcNAc(a1-4)Gal(b1-3)GlcNAc
# Method in brief: as §1
# [5] = biological target: GlcNAc(a1-4)Gal(b1-4)GalNAc
# Method in brief: as §1
# [6] = biological target: GlcNAc(a1-4)Gal(b1-4)GlcNAc
# Method in brief: as §1
# [7] = biological target: GlcNAc(a1-4)Gal(b1-4)GlcNAc(b1-3)Gal(b1-4)Glc
# Method in brief: as §1
# [8] = biological target: GlcNAc(a1-4)Gal(b1-4)GlcNAc(b1-3)Gal(b1-4)GlcNAc
# Method in brief: as §1
# [9] = biological target: GlcNAc(a1-4)Gal(b1-4)GlcNAc(b1-3)Gal(b1-4)GlcNAc(b1-3)Gal(b1-4)GlcNAc
# Method in brief: as §1
# [10] = biological target: GlcNAc(a1-4)Gal(b1-4)GlcNAc(b1-3)Gal(b1-4)[Fuc(a1-3)]GlcNAc(b1-3)Gal(b1-4)[Fuc(a1-3)]GlcNAc
# Method in brief: as §1
# [11] = biological target: GlcNAc(a1-6)Gal(b1-4)GlcNAc
# Method in brief: as §1
# [12] = biological target: GlcNAc(b1-2)Gal(b1-3)GalNAc
# Method in brief: as §1
# [13] = biological target: GlcNAc(b1-2)Man(a1-3)[GlcNAc(b1-2)Man(a1-6)]Man(b1-4)GlcNAc(b1-4)GlcNAc
# Method in brief: as §1
# [14] = biological target: GlcNAc(b1-2)Man(a1-3)[GlcNAc(b1-2)Man(a1-6)]Man(b1-4)GlcNAc(b1-4)[Fuc(a1-6)]GlcNAc
# Method in brief: as §1
# [15] = biological target: GlcNAc(b1-2)Man(a1-3)[GlcNAc(b1-4)][GlcNAc(b1-2)Man(a1-6)]Man(b1-4)GlcNAc(b1-4)GlcNAc
# Method in brief: as §1
# [16] = biological target: GlcNAc(b1-2)Man(a1-3)[GlcNAc(b1-4)][GlcNAc(b1-2)Man(a1-6)]Man(b1-4)GlcNAc(b1-4)[Fuc(a1-6)]GlcNAc
# Method in brief: as §1
# [17] = biological target: GlcNAc(b1-2)[GlcNAc(b1-4)]Man(a1-3)[GlcNAc(b1-2)Man(a1-6)]Man(b1-4)GlcNAc(b1-4)GlcNAc
# Method in brief: as §1
binder,measurement,setting,value
CML1 (Coprinopsis cinerea) (protein) MAIFHTGSELFIITRGPGKLTLLTWGGLNNLRSVIGAIPTENTGVTKWAVSFSHNYTRFSFIWEGQGEACYQIGNGLTRSPVGRSWSSSSTIHWGSSTVITEDVTSVVPGAVNRDKVTTAYALPDNL,glycan array binding signal (z-score),Glc(b1-4)Glc,-0.358
same,glycan array binding signal (z-score),Glc(b1-6)Glc,-0.356
same,glycan array binding signal (z-score),GlcA(b1-3)Gal,-0.323
same,glycan array binding signal (z-score),GlcA(b1-3)GlcNAc,-0.349
same,glycan array binding signal (z-score),GlcA(b1-6)Gal,-0.335
same,glycan array binding signal (z-score),[1],-0.329
same,glycan array binding signal (z-score),[2],-0.337
same,glycan array binding signal (z-score),[3],-0.336
same,glycan array binding signal (z-score),[4],-0.343
same,glycan array binding signal (z-score),[5],-0.34
same,glycan array binding signal (z-score),[6],-0.321
same,glycan array binding signal (z-score),[7],-0.323
same,glycan array binding signal (z-score),[8],-0.344
same,glycan array binding signal (z-score),[9],-0.336
same,glycan array binding signal (z-score),[10],0.07
same,glycan array binding signal (z-score),[11],-0.32
same,glycan array binding signal (z-score),[12],-0.347
same,glycan array binding signal (z-score),[13],-0.344
same,glycan array binding signal (z-score),[14],-0.33
same,glycan array binding signal (z-score),[15],-0.362
same,glycan array binding signal (z-score),[16],-0.35
same,glycan array binding signal (z-score),[17],-0.32
